For this test, the system named is L1210 leukemia ip in BDF1 mice, survival T/C. Description: NCI In Vivo Anticancer Drug Screen. Data for tumor model L1210 Leukemia (intraperitoneal) in B6D2F1 (BDF1) mice. The settings on record: higher = longer survival.
Where [1] appears, read: endpoint: mean survival time, dose: 400.0 mg/kg/injection, schedule: Q04DX002 (ip), vehicle: saline with Tween-80.
Setting [2] is: endpoint: mean survival time, dose: 100.0 mg/kg/injection, schedule: Q04DX003 (ip), vehicle: saline.

Inconclusive results and toxic doses are left out. Certain results were filed several times, with different values. This list holds those alone. The source may hold further records. The records of an entry repeat one measurement across runs, samples, wells, individuals or studies.

Take `COC1CCC(/C(C#N)=C/c2ccco2)CC1` (stereo unspecified): the T/C under setting [1] was 87 % of control and 150 % of control.

Take `CCCCCCCCCCCCC1CCCC(C)C1` (stereo unspecified): the T/C under setting [1] is 97 % of control and 166 % of control.

With `COc1ccc2ncc(C)c(CO)c2c1`, where the note is “endpoint: mean survival time, dose: 100.0 mg/kg/injection, schedule: Q01DX009 (ip), vehicle: Klucel (hydroxypropylcellulose) (HPC)”, the T/C was 102 % of control and 166 % of control.

Take `NS(=O)(=O)c1ncnc2nc[nH]c12`: under “endpoint: mean survival time, dose: 50.0 mg/kg/injection, schedule: Q01DX Z (ip), vehicle: carboxymethylcellulose (CMC)”, the T/C was 110 % of control and 153 % of control.

In the case of `CCCOC(=O)C1(N)CCCC1`, the T/C (endpoint: mean survival time, dose: 225.0 mg/kg/injection, schedule: Q01DX Z (ip), vehicle: saline) was 119 % of control and 159 % of control.

Regarding `NC(=O)c1cn(C2OC(CO)C(O)C2O)c2nc(Cl)nc(N)c12` (stereo unspecified), the T/C under setting [2] was 118 % of control and 165 % of control.

For `CCCCCCCCN(C)N=Nc1ccc(Cl)cc1C(=O)O`, the T/C (endpoint: mean survival time, dose: 200.0 mg/kg/injection, schedule: Q01DX009 (ip), vehicle: Klucel (hydroxypropylcellulose) (HPC)) was 120 % of control and 153 % of control.

For the compound `c1nc(SSc2ncnc3nc[nH]c23)c2[nH]cnc2n1`, the T/C was 106 % of control and 152 % of control (endpoint: mean survival time, dose: 45.0 mg/kg/injection, schedule: Q04DX003 (ip), vehicle: saline); 103 % of control, 104 % of control, 164 % of control under setting [2].

Consider `CC1(C)N=C(N)N=C(N)N1c1ccc(OCc2ccc(C(=O)Nc3cccc(S(=O)(=O)F)c3)cc2)c(Cl)c1`, for which, under “endpoint: mean survival time, dose: 50.0 mg/kg/injection, schedule: Q01DX009 (ip), vehicle: Klucel (hydroxypropylcellulose) (HPC)”, the T/C was 98 % of control, 112 % of control, 173 % of control.

On to `c1cc2n(n1)CCN2`, for which the T/C (endpoint: median survival time, dose: 400.0 mg/kg/injection, schedule: Q04DX003 (oral), vehicle: saline) was 97 % of control and 170 % of control; the T/C (endpoint: median survival time, dose: 400.0 mg/kg/injection, schedule: Q08DX002 (oral), vehicle: saline) is 108 % of control and 155 % of control.

For `O=C(NCCCNC(=O)Nc1ccc(C2=NCCN2)cc1)Nc1ccc(C2=NCCN2)cc1`, the T/C (endpoint: mean survival time, dose: 62.0 mg/kg/injection, schedule: Q01DX Z (ip), vehicle: water) is 114 % of control and 177 % of control.

For `CC[n+]1cccc(NC(=O)c2ccc(NC(=O)c3ccc(C(=O)Nc4ccc5c(ccc[n+]5CC)c4)cc3)cc2)c1`, where the note is “endpoint: mean survival time, dose: 25.0 mg/kg/injection, schedule: Q01DX001 (ip), vehicle: alkali diluted with saline”, the T/C was 111 % of control and 153 % of control.

In the case of `CCC(=O)OCC1OC(n2cnc3c(=S)nc(N)[nH]c32)C(OC(=O)CC)C1OC(=O)CC` (stereo unspecified), the T/C (endpoint: mean survival time, dose: 3.0 mg/kg/injection, schedule: Q01DX Z (ip), vehicle: carboxymethylcellulose (CMC)) is given as 98 % of control, 122 % of control, 151 % of control.

As for `Clc1cc(N2CC2)nc(N2CC2)n1`, the T/C (endpoint: mean survival time, dose: 9.37 mg/kg/injection, schedule: Q04DX003 (ip), vehicle: saline) is 120 % of control and 174 % of control.

Source of the values: PubChem BioAssay AID248 (DTP/NCI, 2004).
